Data from paper PMC9911399, “Two distinct binding modes provide the RNA-binding protein RbFox with extraordinary sequence specificity”.
Numbering of substitutions follows the chain as printed; changes in the protein carry UniProt numbers. The list shows a part of the results.

T1: RBFOX1 RRM (Homo sapiens, UniProt Q9NWB1 109-208)
T1 sequence: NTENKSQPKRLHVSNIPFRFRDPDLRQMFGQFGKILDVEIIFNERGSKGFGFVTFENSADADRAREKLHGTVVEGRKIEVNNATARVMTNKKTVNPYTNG

B1: AGCCUCC (DNA:RNA)
RNA: GGGAGACCGGAAUUCAGAUUGUCCAGCCUCCUUAAAUCCCGUCGUAGCCACCA
DNA 1: CAATCTGAATTCCGGTCTCCC
DNA 2: TGGTGGCTACGACGGGATT
B2: GGGAUGC (DNA:RNA)
RNA: B1 RNA with A25G, C27G, C28A, C30G
DNA 1: CAATCTGAATTCCGGTCTCCC
DNA 2: TGGTGGCTACGACGGGATT
B3: AGAAGUC (DNA:RNA)
RNA: B1 RNA with C27A, C28A, U29G, C30U
DNA 1: CAATCTGAATTCCGGTCTCCC
DNA 2: TGGTGGCTACGACGGGATT
B4: UUUUUUA (DNA:RNA)
RNA: B1 RNA with A25U, G26U, C27U, C28U, C30U, C31A
DNA 1: CAATCTGAATTCCGGTCTCCC
DNA 2: TGGTGGCTACGACGGGATT
B5: GGAUCUA (DNA:RNA)
RNA: B1 RNA with A25G, C27A, C28U, U29C, C30U, C31A
DNA 1: CAATCTGAATTCCGGTCTCCC
DNA 2: TGGTGGCTACGACGGGATT
B6: GCGUCAG (DNA:RNA)
RNA: GGGAGACCGGAAUUCAGAUUGUCCGCGUCAGUUAAAUCCCGUCGUAGCCACCA
DNA 1: CAATCTGAATTCCGGTCTCCC
DNA 2: TGGTGGCTACGACGGGATT
B7: UGAAGGA (DNA:RNA)
RNA: B1 RNA with A25U, C27A, C28A, U29G, C30G, C31A
DNA 1: CAATCTGAATTCCGGTCTCCC
DNA 2: TGGTGGCTACGACGGGATT
B8: CCUACUA (DNA:RNA)
RNA: B6 RNA with G25C, G27U, U28A, A30U, G31A
DNA 1: CAATCTGAATTCCGGTCTCCC
DNA 2: TGGTGGCTACGACGGGATT
B9: CGAACUC (DNA:RNA)
RNA: B1 RNA with A25C, C27A, C28A, U29C, C30U
DNA 1: CAATCTGAATTCCGGTCTCCC
DNA 2: TGGTGGCTACGACGGGATT
B10: UACGUAU (DNA:RNA)
RNA: B1 RNA with A25U, G26A, C28G, C30A, C31U
DNA 1: CAATCTGAATTCCGGTCTCCC
DNA 2: TGGTGGCTACGACGGGATT
B11: GAUUCAU (DNA:RNA)
RNA: B6 RNA with C26A, G27U, G31U
DNA 1: CAATCTGAATTCCGGTCTCCC
DNA 2: TGGTGGCTACGACGGGATT
B12: UUCUAAU (DNA:RNA)
RNA: B6 RNA with G25U, C26U, G27C, C29A, G31U
DNA 1: CAATCTGAATTCCGGTCTCCC
DNA 2: TGGTGGCTACGACGGGATT
B13: CGAUAGA (DNA:RNA)
RNA: B1 RNA with A25C, C27A, C28U, U29A, C30G, C31A
DNA 1: CAATCTGAATTCCGGTCTCCC
DNA 2: TGGTGGCTACGACGGGATT
B14: UUGAGCA (DNA:RNA)
RNA: B1 RNA with A25U, G26U, C27G, C28A, U29G, C31A
DNA 1: CAATCTGAATTCCGGTCTCCC
DNA 2: TGGTGGCTACGACGGGATT
B15: CACCGCC (DNA:RNA)
RNA: B1 RNA with A25C, G26A, U29G
DNA 1: CAATCTGAATTCCGGTCTCCC
DNA 2: TGGTGGCTACGACGGGATT
B16: AUUCUAG (DNA:RNA)
RNA: B1 RNA with G26U, C27U, C30A, C31G
DNA 1: CAATCTGAATTCCGGTCTCCC
DNA 2: TGGTGGCTACGACGGGATT
B17: CCCUGGA (DNA:RNA)
RNA: B6 RNA with G25C, G27C, C29G, A30G, G31A
DNA 1: CAATCTGAATTCCGGTCTCCC
DNA 2: TGGTGGCTACGACGGGATT
B18: AGAGACC (DNA:RNA)
RNA: B1 RNA with C27A, C28G, U29A
DNA 1: CAATCTGAATTCCGGTCTCCC
DNA 2: TGGTGGCTACGACGGGATT
B19: GAGUUGG (DNA:RNA)
RNA: B6 RNA with C26A, C29U, A30G
DNA 1: CAATCTGAATTCCGGTCTCCC
DNA 2: TGGTGGCTACGACGGGATT
B20: UAAUCGC (DNA:RNA)
RNA: B6 RNA with G25U, C26A, G27A, A30G, G31C
DNA 1: CAATCTGAATTCCGGTCTCCC
DNA 2: TGGTGGCTACGACGGGATT
B21: GCUCAUU (DNA:RNA)
RNA: B6 RNA with G27U, U28C, C29A, A30U, G31U
DNA 1: CAATCTGAATTCCGGTCTCCC
DNA 2: TGGTGGCTACGACGGGATT
B22: ACCUUAA (DNA:RNA)
RNA: B1 RNA with G26C, C28U, C30A, C31A
DNA 1: CAATCTGAATTCCGGTCTCCC
DNA 2: TGGTGGCTACGACGGGATT
B23: CGCAACC (DNA:RNA)
RNA: B1 RNA with A25C, C28A, U29A
DNA 1: CAATCTGAATTCCGGTCTCCC
DNA 2: TGGTGGCTACGACGGGATT
B24: CGUACCC (DNA:RNA)
RNA: B1 RNA with A25C, C27U, C28A, U29C
DNA 1: CAATCTGAATTCCGGTCTCCC
DNA 2: TGGTGGCTACGACGGGATT
B25: ACUGAUA (DNA:RNA)
RNA: B1 RNA with G26C, C27U, C28G, U29A, C30U, C31A
DNA 1: CAATCTGAATTCCGGTCTCCC
DNA 2: TGGTGGCTACGACGGGATT
B26: CCGCAGA (DNA:RNA)
RNA: B6 RNA with G25C, U28C, C29A, A30G, G31A
DNA 1: CAATCTGAATTCCGGTCTCCC
DNA 2: TGGTGGCTACGACGGGATT
B27: UCGAAGG (DNA:RNA)
RNA: B6 RNA with G25U, U28A, C29A, A30G
DNA 1: CAATCTGAATTCCGGTCTCCC
DNA 2: TGGTGGCTACGACGGGATT
B28: AGUUGAC (DNA:RNA)
RNA: B1 RNA with C27U, C28U, U29G, C30A
DNA 1: CAATCTGAATTCCGGTCTCCC
DNA 2: TGGTGGCTACGACGGGATT
B29: CCAAAUA (DNA:RNA)
RNA: B6 RNA with G25C, G27A, U28A, C29A, A30U, G31A
DNA 1: CAATCTGAATTCCGGTCTCCC
DNA 2: TGGTGGCTACGACGGGATT
B30: CGCUGGA (DNA:RNA)
RNA: B1 RNA with A25C, C28U, U29G, C30G, C31A
DNA 1: CAATCTGAATTCCGGTCTCCC
DNA 2: TGGTGGCTACGACGGGATT
B31: GGACUGA (DNA:RNA)
RNA: B1 RNA with A25G, C27A, C30G, C31A
DNA 1: CAATCTGAATTCCGGTCTCCC
DNA 2: TGGTGGCTACGACGGGATT

These binders were tested against T1, RBFOX1 RRM (assay: EMSA; HiTS-Eq, 1 nM pool, 10 min; buffer printed only for the single-RNA assays: 10 mM Tris pH 7.5, 150 mM NaCl, 3.4 mM EDTA, 0.001% NP-40, 30 C). Conditions: tags: His6 N-terminal (pET28a); label: 5' 32P.
Summary of the method: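 A pool of RNA with 7 randomized nucleotides, 5′-radiolabelled and with DNA-annealed flanks, was equilibrated at 1 nM for 10 min in 50 µL with purified RbFox RRM, wild type or mutant, across increasing protein concentrations. Free RNA was separated by 8% native PAGE, excised, reverse-transcribed, barcoded by PCR and sequenced. Relative association constants were obtained from read-count changes of each RNA species versus the control reaction and normalised to the cognate motif.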
For B1, the binding signal was 0.00234 KA relative to UGCAUGU. For B2, the binding signal was 0.0515 KA relative to UGCAUGU. B3 was tested, and the binding signal was 0.0059 KA relative to UGCAUGU. B4 was tested, and the binding signal was 0.0102 KA relative to UGCAUGU. In the case of B5, the binding signal is reported as 0.0142 KA relative to UGCAUGU. With B6 the binding signal was 0.0114 KA relative to UGCAUGU. With B7 the binding signal was 0.00721 KA relative to UGCAUGU. In the case of B8, the binding signal is reported as 0.00129 KA relative to UGCAUGU. B9 was tested, and the binding signal was 0.00851 KA relative to UGCAUGU. B10 was tested, and the binding signal was 0.00835 KA relative to UGCAUGU. B11 was tested, and the binding signal was 0.00493 KA relative to UGCAUGU. B12 was tested, and the binding signal was 0.00144 KA relative to UGCAUGU. In the case of B13, the binding signal is reported as 0.0128 KA relative to UGCAUGU. B14 was tested, and the binding signal was 0.0174 KA relative to UGCAUGU. For B15, the binding signal was 0.00333 KA relative to UGCAUGU. B16 was tested, and the binding signal was 0.00599 KA relative to UGCAUGU. With B17 the binding signal was 0.013 KA relative to UGCAUGU. In the case of B18, the binding signal is reported as 0.00486 KA relative to UGCAUGU. With B19 the binding signal was 0.0176 KA relative to UGCAUGU. In the case of B20, the binding signal is reported as 0.0114 KA relative to UGCAUGU. With B21 the binding signal was 0.0092 KA relative to UGCAUGU. For B22, the binding signal was 0.00107 KA relative to UGCAUGU. In the case of B23, the binding signal is reported as 0.0129 KA relative to UGCAUGU. In the case of B24, the binding signal is reported as 0.00424 KA relative to UGCAUGU. For B25, the binding signal was 0.00715 KA relative to UGCAUGU. In the case of B26, the binding signal is reported as 0.0122 KA relative to UGCAUGU. For B27, the binding signal was 0.0124 KA relative to UGCAUGU. B28 was tested, and the binding signal was 0.015 KA relative to UGCAUGU. With B29 the binding signal was 0.000528 KA relative to UGCAUGU. In the case of B30, the binding signal is reported as 0.00997 KA relative to UGCAUGU. B31 was tested, and the binding signal was 0.0188 KA relative to UGCAUGU.
